# Test results taken from PubChem BioAssay AID504832 (National Center for Advancing Translational Sciences (NCATS), 2011).
# In all, about 310,000 compounds went through this assay and about 18,000 (5.8%) were called active. The shares of active, inactive and inconclusive entries below differ from those in the screen. Calls come from the whole dose curve; as a rule, active = well fitted inhibition curve with a large enough effect; inconclusive = small, poorly fitted or top-dose-only effect, or another doubt; inactive = no such curve, though single readings can be large or run the other way. No potency is given beside an inconclusive call; the fits are too rough.
# Experiment: Primary qHTS for delayed death inhibitors of the malarial parasite plastid, 48 hour incubation
# Conditions: P. falciparum luciferase growth in erythrocytes; series mostly up to 28.7 µM
# Outline: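 Compounds are pin-transferred into medium, infected erythrocytes (2% hematocrit, 0.1% parasitemia final) are added, and plates sit one parasite generation at 37 C in 5% CO2. Detection reagent is then added and luminescence measured.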
# Potency is the fitted concentration of half-maximal effect; tags give direction and shape of the fitted curve.
row,Compound,Potency
1,COC(=O)C(N)Cc1ccc(O)c(O)c1 (stereo not given),"inconclusive [inhibitor, partial curve, poor fit]"
2,COc1ccc(Nc2nc(N)nc(COc3ccc(OC)cc3)n2)cc1,inactive
3,COc1ccc(CCNC(=O)CC(=O)NCCc2ccc(OC)cc2)cc1,"inconclusive [inhibitor, single point]"
4,CCOC(=O)C1CCN(c2nc(-c3ccc(Br)cc3)nc3ccccc23)CC1,"inconclusive [inhibitor, single point]"
5,COc1ccc(NC(=O)CC2C(=O)N(C)C(=S)N2Cc2ccco2)cc1 (stereo not given),inactive
6,O=c1cccc2n1CC1CC2CN(c2nc(N3CCCCC3)nc(N3CCCCC3)n2)C1 (stereo not given),"inconclusive [inhibitor, single point]"
7,O=C(CSc1ncnc2c1cnn2-c1ccccc1)NC1CCCC1,inactive
8,COCc1ccc(CN2CCc3c([nH]c4ccccc34)C2CC(C)C)o1 (stereo not given),"inconclusive [inhibitor, single point]"
9,CCCCCC[n+]1c(-c2ccc(Cl)cc2Cl)csc1Nc1ccccc1,active: 1.17 µM
10,CC(C)(C)OC(=O)NCCCC[C@@H](C(=O)NCCCCCCCCCCC(=O)N1CCN(C(=O)OC(C)(C)C)CC1)n1cc(CCO)nn1,active: 1.85 µM
11,CCc1ccc2c(c1)C(=O)C[C@]1(CCC[C@H](C)C1)O2,"inconclusive [inhibitor, single point]"
12,CCCCCC[N+](C)(C)CC/C=C1/c2ccccc2Sc2ccc(Cl)cc21,"inconclusive [inhibitor, full curve, poor fit]"
13,C=C(C)CSc1nc2sc3c(c2c(=O)n1-c1ccccc1)CCN(C)C3,active: 1.47 µM
14,CCOC(=O)/C=c1\s/c(=C\c2ccc3cc(OC)ccc3c2)c(=O)n1CC(=O)NCc1ccc2c(c1)OCO2,"inconclusive [inhibitor, partial curve]"
15,Cc1cc(C)c(C(=O)/C=C/c2ccc(C(C)C)cc2)c(=O)[nH]1,"inconclusive [inhibitor, partial curve]"
16,O=c1cc(-c2ccc(F)cc2)[nH][nH]1,inactive
17,N#Cc1ccc2c(c1)C[C@]1(c3ccsc3)Oc3c(c(=O)oc4ccc(F)cc34)C2O1,active: 1.51 µM
18,Cc1ccnc(NC(=O)c2ccc(Cl)c(S(=O)(=O)N3CCCCC3)c2)c1,"inconclusive [inhibitor, single point]"
19,C=CCSc1nnc(CNC(=O)c2ccc(Cl)cc2)n1CC,inactive
20,CC(C)CCn1c2ccccc2c2cc(CC(N)=O)ccc21,"inconclusive [inhibitor, partial curve, poor fit]"
